Only a part is listed here, and it is no random draw. The list includes weakly bound sequences.

The assay concerns the target T1, GST-Co-NF-kB (UniProt F1ARL5).
T1 sequence: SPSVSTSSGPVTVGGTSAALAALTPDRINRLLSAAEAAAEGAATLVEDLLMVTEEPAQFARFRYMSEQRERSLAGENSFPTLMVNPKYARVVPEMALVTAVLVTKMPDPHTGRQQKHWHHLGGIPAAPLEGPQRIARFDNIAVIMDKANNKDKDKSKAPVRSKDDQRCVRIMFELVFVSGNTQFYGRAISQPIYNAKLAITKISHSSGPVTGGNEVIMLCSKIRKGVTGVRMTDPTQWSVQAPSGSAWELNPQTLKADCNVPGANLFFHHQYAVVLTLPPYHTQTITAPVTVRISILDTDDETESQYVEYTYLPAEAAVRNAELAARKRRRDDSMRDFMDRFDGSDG
Description: protein-binding microarray (PBM). The following applies: PBM: ~300 nM protein, 6 mM HEPES pH 7.8, 80 mM KCl, 0.5 mM EDTA, 0.5 mM EGTA, 6% glycerol, 35 ng/ul poly-dIdC, 1% milk, 1 h, room temperature; Ap Aiptasia and Nv Nematostella (sea anemones) / Co Capsaspora / Aq Amphimedon (sponge) / Dm Drosophila / Hu human; RHD is the Rel homology domain; high values mean tight binding; most listed sequences are background and not binding sites; double strand, one strand shown.
With “CCGATTAACATCAGGGTATTTTATGATGTTAATCGGGTCTTGATTCGCTTGACGCTGCTG”, the binding signal was 3.22 z-score. Then “CCGATTAACATCAGAGTTTTCCCTGATGTTAATCGGGTCTTGATTCGCTTGACGCTGCTG”, with 4.75 z-score; and “CCGATTAACATCAGGGGGTTGCATGATGTTAATCGGGTCTTGATTCGCTTGACGCTGCTG”, with 2.22 z-score; and “CCGATTAACATCAGGGGGAACACTGATGTTAATCGGGTCTTGATTCGCTTGACGCTGCTG”, with 8.64 z-score. Then “CCGATTAACATCAAAATTTCCCTTGATGTTAATCGGGTCTTGATTCGCTTGACGCTGCTG”, with 5.01 z-score. “CCGATTAACATCAGGAGAACCCCTGATGTTAATCGGGTCTTGATTCGCTTGACGCTGCTG” came in with a binding signal of 1.26 z-score.

Take “CCGATTAACATCAGGATAATCCCTGATGTTAATCGGGTCTTGATTCGCTTGACGCTGCTG”: the binding signal stood at 1.51 z-score. Then “CCGATTAACATCATTAGGGGAAGTGATGTTAATCGGGTCTTGATTCGCTTGACGCTGCTG”, with 3.41 z-score; and “CCGATTAACATCAAGGGGGGGCATGATGTTAATCGGGTCTTGATTCGCTTGACGCTGCTG”, with 4.6 z-score; and “CCGATTAACATCACCCGATTCCCTGATGTTAATCGGGTCTTGATTCGCTTGACGCTGCTG”, with 2.5 z-score. “CCGATTAACATCAGGACAATCCCTGATGTTAATCGGGTCTTGATTCGCTTGACGCTGCTG”: the binding signal was found to be 0.265 z-score. For “CCGATTAACATCAAGGTAATTCCTGATGTTAATCGGGTCTTGATTCGCTTGACGCTGCTG” the value was 0.332 z-score. “CCGATTAACATCAAGGATTTCCCTGATGTTAATCGGGTCTTGATTCGCTTGACGCTGCTG” yielded a binding signal of 3.24 z-score. For “CCGATTAACATCAATAAAGTCCCTGATGTTAATCGGGTCTTGATTCGCTTGACGCTGCTG” the value was 0.908 z-score. Then “CCGATTAACATCACGAATTTCCCTGATGTTAATCGGGTCTTGATTCGCTTGACGCTGCTG”, with 4.33 z-score; and “CCGATTAACATCAATGGGAAAATTGATGTTAATCGGGTCTTGATTCGCTTGACGCTGCTG”, with 3.46 z-score. For “CCGATTAACATCACGGGAACACCTGATGTTAATCGGGTCTTGATTCGCTTGACGCTGCTG” the value was 1.95 z-score; for “CCGATTAACATCAGGATTTCCCATGATGTTAATCGGGTCTTGATTCGCTTGACGCTGCTG”, 3.18 z-score. In turn, “CCGATTAACATCAGAAATCCCCATGATGTTAATCGGGTCTTGATTCGCTTGACGCTGCTG” showed a binding signal of 4.52 z-score.

In turn, “CCGATTAACATCAGGAAATGCCCTGATGTTAATCGGGTCTTGATTCGCTTGACGCTGCTG” showed a binding signal of 0.242 z-score. For “CCGATTAACATCACGGGGTTCCCTGATGTTAATCGGGTCTTGATTCGCTTGACGCTGCTG” the value was 2.51 z-score. For “CCGATTAACATCAGGGAAAAGTATGATGTTAATCGGGTCTTGATTCGCTTGACGCTGCTG” the value was 4.73 z-score; for “CCGATTAACATCAGGGACTCACCTGATGTTAATCGGGTCTTGATTCGCTTGACGCTGCTG”, 0.315 z-score. For “CCGATTAACATCAAGGGGGAAAATGATGTTAATCGGGTCTTGATTCGCTTGACGCTGCTG” the value was 9.03 z-score. Regarding “CCGATTAACATCAGGGCATACCCTGATGTTAATCGGGTCTTGATTCGCTTGACGCTGCTG”, the binding signal stood at 0.562 z-score. Take “CCGATTAACATCATTAGGGTATTTGATGTTAATCGGGTCTTGATTCGCTTGACGCTGCTG”: the binding signal came to 0.747 z-score. Then “CCGATTAACATCAAGGAAACCCCTGATGTTAATCGGGTCTTGATTCGCTTGACGCTGCTG”, with 2.91 z-score. Then “CCGATTAACATCAACAAATCCCCTGATGTTAATCGGGTCTTGATTCGCTTGACGCTGCTG”, with 4.14 z-score.

Values taken from publication PMC5700166.
